# Source: the supplement of paper PMC8728848
# The list shows a part of the results.
# B1: SP15308A-bot-339-19-339 (Bacteroides ovatus) (protein)
# chain: ACNNEWEDEQYEQYISFKSPIPAGGEGVTDIYVRYKEDGKVTYRLPIVVSGSTTNTLDREVHIAVDKDTLETLNIERFSIHRPGLWYTALEEDKYDFPKTVHISAGSSVEQLNIDFNLQGIDMLEKWVLPLTIVDDPSYNYKSHPRKNYAKALLRVIPFNNYSGSYTSSAMKVYTYINGKPDTNARTANKRTGYVINDNTVFFYAGLISEDLDKEVREKYKINVHFNEDGTLHMEQGDPTNKMKFELIGTPTYSKTSVMDATRPYLERRYVQIMFEYDFEDFSYGGNGVDVIPIKYKVEGSMTLQRNINTQIPDEDQQIEW
# Key:
# Experiment in all cases: glycan array binding signal (z-score within array); higher = stronger binding
# Settings in all cases: glycan notation: IUPAC condensed, linker removed
# [1] = molecular target: Fuc(a1-2)Gal(b1-4)GlcNAc(b1-3)Gal(b1-4)GlcNAc(b1-3)Gal(b1-4)GlcNAc
# Procedure, shortened: (§1)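 Arrays were curated from the Consortium for Functional Glycomics database, 3228 in total, and kept only where the protein sequence was available. Binding is expressed as a within-array Z-score. This score was averaged across arrays of the same protein sequence at different concentrations or buffers and across linkers, and negative values can be read as non-binding.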
# [2] = molecular target: Fuc(a1-2)Gal(b1-4)GlcNAc(b1-3)GalNAc
# Procedure, shortened: as §1
# [3] = molecular target: Fuc(a1-2)Gal(b1-4)GlcNAc(b1-3)[Fuc(a1-2)Gal(b1-4)GlcNAc(b1-6)]GalNAc
# Procedure, shortened: as §1
# [4] = molecular target: Fuc(a1-2)Gal(b1-4)GlcNAc(b1-3)[Fuc(a1-3)[Gal(b1-4)]GlcNAc(b1-6)]Gal(b1-4)Glc
# Procedure, shortened: as §1
# [5] = molecular target: Fuc(a1-2)Gal(b1-4)GlcNAc(b1-6)GalNAc
# Procedure, shortened: as §1
# [6] = molecular target: Fuc(a1-2)Gal(b1-4)GlcNAc6S
# Procedure, shortened: as §1
# [7] = molecular target: Fuc(a1-2)Gal(b1-4)[Fuc(a1-3)]GlcNAc
# Procedure, shortened: as §1
# [8] = molecular target: Fuc(a1-2)Gal(b1-4)[Fuc(a1-3)]GlcNAc(b1-2)Man(a1-3)[Fuc(a1-2)Gal(b1-4)[Fuc(a1-3)]GlcNAc(b1-2)Man(a1-6)]Man(b1-4)GlcNAc(b1-4)[Fuc(a1-6)]GlcNAc
# Procedure, shortened: as §1
# [9] = molecular target: Fuc(a1-2)Gal(b1-4)[Fuc(a1-3)]GlcNAc(b1-2)[Fuc(a1-2)Gal(b1-4)[Fuc(a1-3)]GlcNAc(b1-4)]Man(a1-3)[Fuc(a1-2)Gal(b1-4)[Fuc(a1-3)]GlcNAc(b1-2)Man(a1-6)]Man(b1-4)GlcNAc(b1-4)GlcNAc
# Procedure, shortened: as §1
# [10] = molecular target: Fuc(a1-2)Gal(b1-4)[Fuc(a1-3)]GlcNAc(b1-3)Gal(b1-4)[Fuc(a1-3)]GlcNAc
# Procedure, shortened: as §1
# [11] = molecular target: Fuc(a1-2)Gal(b1-4)[Fuc(a1-3)]GlcNAc(b1-3)Gal(b1-4)[Fuc(a1-3)]GlcNAc(b1-3)Gal(b1-4)[Fuc(a1-3)]GlcNAc
# Procedure, shortened: as §1
# [12] = molecular target: Fuc(a1-2)Gal(b1-4)[Fuc(a1-3)]GlcNAc(b1-3)GalNAc
# Procedure, shortened: as §1
# [13] = molecular target: Fuc(a1-2)Gal(b1-4)[Fuc(a1-3)]GlcNAc(b1-3)[Neu5Ac(a2-6)Gal(b1-4)GlcNAc(b1-6)]Gal(b1-4)Glc
# Procedure, shortened: as §1
# [14] = molecular target: Fuc(a1-2)Gal3S(b1-4)GlcNAc
# Procedure, shortened: as §1
# [15] = molecular target: Fuc(a1-2)Gal6S(b1-3)GlcNAc
# Procedure, shortened: as §1
# [16] = molecular target: Fuc(a1-2)Gal6S(b1-3)GlcNAc6S
# Procedure, shortened: as §1
# [17] = molecular target: Fuc(a1-2)Gal6S(b1-4)Glc
# Procedure, shortened: as §1
# [18] = molecular target: Fuc(a1-2)Gal6S(b1-4)Glc6S
# Procedure, shortened: as §1
# [19] = molecular target: Fuc(a1-2)[Gal(a1-3)]Gal
# Procedure, shortened: as §1
# [20] = molecular target: Fuc(a1-2)[Gal(a1-3)]Gal(b1-3)GalNAc
# Procedure, shortened: as §1
# [21] = molecular target: Fuc(a1-2)[Gal(a1-3)]Gal(b1-3)GalNAc(b1-3)Gal(a1-4)Gal(b1-4)Glc
# Procedure, shortened: as §1
# [22] = molecular target: Fuc(a1-2)[Gal(a1-3)]Gal(b1-3)GlcNAc
# Procedure, shortened: as §1
# [23] = molecular target: Fuc(a1-2)[Gal(a1-3)]Gal(b1-3)GlcNAc(b1-2)Man(a1-3)[Fuc(a1-2)[Gal(a1-3)]Gal(b1-3)GlcNAc(b1-2)Man(a1-6)]Man(b1-4)GlcNAc(b1-4)GlcNAc
# Procedure, shortened: as §1
# [24] = molecular target: Fuc(a1-2)[Gal(a1-3)]Gal(b1-3)GlcNAc(b1-2)Man(a1-3)[Fuc(a1-2)[Gal(a1-3)]Gal(b1-3)GlcNAc(b1-2)Man(a1-6)]Man(b1-4)GlcNAc(b1-4)[Fuc(a1-6)]GlcNAc
# Procedure, shortened: as §1
# [25] = molecular target: Fuc(a1-2)[Gal(a1-3)]Gal(b1-3)GlcNAc(b1-3)GalNAc
# Procedure, shortened: as §1
# [26] = molecular target: Fuc(a1-2)[Gal(a1-3)]Gal(b1-3)GlcNAc(b1-6)GalNAc
# Procedure, shortened: as §1
# [27] = molecular target: Fuc(a1-2)[Gal(a1-3)]Gal(b1-4)Glc
# Procedure, shortened: as §1
# [28] = molecular target: Fuc(a1-2)[Gal(a1-3)]Gal(b1-4)GlcNAc
# Procedure, shortened: as §1
# [29] = molecular target: Fuc(a1-2)[Gal(a1-3)]Gal(b1-4)GlcNAc(b1-2)Man
# Procedure, shortened: as §1
# [30] = molecular target: Fuc(a1-2)[Gal(a1-3)]Gal(b1-4)GlcNAc(b1-2)Man(a1-3)[Fuc(a1-2)[Gal(a1-3)]Gal(b1-4)GlcNAc(b1-2)Man(a1-6)]Man(b1-4)GlcNAc(b1-4)GlcNAc
# Procedure, shortened: as §1
binder,measurement,setting,value
B1,glycan array binding signal (z-score),[1],-0.419
same,glycan array binding signal (z-score),[2],0.02
same,glycan array binding signal (z-score),[3],0.349
same,glycan array binding signal (z-score),[4],-0.168
same,glycan array binding signal (z-score),[5],-0.072
same,glycan array binding signal (z-score),[6],-0.416
same,glycan array binding signal (z-score),[7],-0.007
same,glycan array binding signal (z-score),[8],0.494
same,glycan array binding signal (z-score),[9],-0.05
same,glycan array binding signal (z-score),[10],0.357
same,glycan array binding signal (z-score),[11],-0.231
same,glycan array binding signal (z-score),[12],0.687
same,glycan array binding signal (z-score),[13],0.039
same,glycan array binding signal (z-score),[14],0.29
same,glycan array binding signal (z-score),[15],-0.017
same,glycan array binding signal (z-score),[16],0.553
same,glycan array binding signal (z-score),[17],0.254
same,glycan array binding signal (z-score),[18],0.025
same,glycan array binding signal (z-score),[19],-0.093
same,glycan array binding signal (z-score),[20],-0.051
same,glycan array binding signal (z-score),[21],-0.254
same,glycan array binding signal (z-score),[22],-0.034
same,glycan array binding signal (z-score),[23],-0.641
same,glycan array binding signal (z-score),[24],-0.333
same,glycan array binding signal (z-score),[25],-0.457
same,glycan array binding signal (z-score),[26],0.014
same,glycan array binding signal (z-score),[27],-0.257
same,glycan array binding signal (z-score),[28],-0.423
same,glycan array binding signal (z-score),[29],0.239
same,glycan array binding signal (z-score),[30],1.04
